Experimental data published in PMC7819943, “Rice protein-binding microarrays: a tool to detect cis-acting elements near promoter regions in rice”.
The other results are listed elsewhere or left out.

These sequences were tested against T1, OsWOX13 (Oryza sativa, UniProt Q5QMM3 1-267) (assay: protein-binding microarray (RPBM); PBS, 2% BSA, 51.3 ng/ul salmon testes DNA, 50 uM zinc acetate, 200 nM TF, 25 C, 1 h; high values mean tight binding). Conditions: protein: recombinant; tags: N-terminal polyhistidine and DsRed monomer fusion (pET32a); label: CyDye5-dUTP incorporated in the synthesized complementary strand; 3' TTTTT single-stranded linker to array surface; dsDNA, one strand shown.
T1 sequence: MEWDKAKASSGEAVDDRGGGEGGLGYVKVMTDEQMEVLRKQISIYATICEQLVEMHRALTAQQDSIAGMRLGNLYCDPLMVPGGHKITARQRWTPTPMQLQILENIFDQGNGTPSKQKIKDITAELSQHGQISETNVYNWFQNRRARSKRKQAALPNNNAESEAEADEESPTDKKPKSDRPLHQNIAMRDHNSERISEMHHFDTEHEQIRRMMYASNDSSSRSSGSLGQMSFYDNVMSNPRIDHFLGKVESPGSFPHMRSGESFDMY
How it was run: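 A custom Agilent array was converted to double-stranded form by primer extension with Cy5-dUTP and blocked with 2% BSA. Protein at 200 nM in PBS with 2% BSA, salmon testes DNA and 50 µM zinc acetate was applied for 1 h at 25 °C, followed by washing. The proteins were polyhistidine–DsRed N-terminal fusions of transcription factors, expressed in E. coli BL21-CodonPlus and Ni–NTA-purified. The binding signal is per-feature fluorescence intensity (arbitrary units) from an Axon 4000B scanner.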
For “AAATTGAATAGTAATTGTGTTATTTTGGATTGAAGCCAAACGGAGTCACCTAGTGCAG”, the binding signal was 6690 fluorescence intensity (a.u.).
With “TTATTGATTGATTGAATCAGACTGAAATTCCAAACCACGACGGAGTCACCTAGTGCAG” the binding signal was 63100 fluorescence intensity (a.u.).
For “GGATGGGGAGTTGATTGCGGGAGGGATGAGTGTGGACGCACGGAGTCACCTAGTGCAG”, the binding signal was 18400 fluorescence intensity (a.u.).
“GAAGATTGAATCCCTCTGGTGTATATTACCTTCTGTTCTTCGGAGTCACCTAGTGCAG” was tested, and the binding signal was 31000 fluorescence intensity (a.u.).
With “TACATGTATAATTTATTTTGTGAATTTAGACGAAATTTCCCGGAGTCACCTAGTGCAG” the binding signal was 6010 fluorescence intensity (a.u.).
For “GAAACAAACAAAGCGTGATTGATGGCTATCTAGGTACATACGGAGTCACCTAGTGCAG”, the binding signal was 37200 fluorescence intensity (a.u.).
With “CAGATAGACATACCGATAATAAAAGTGACTGAAAGTAAAACGGAGTCACCTAGTGCAG” the binding signal was 5230 fluorescence intensity (a.u.).
For “CCGTTTCACAATGTAATTATTGAATTGCATTGCTCAACCGCGGAGTCACCTAGTGCAG”, the binding signal was 4730 fluorescence intensity (a.u.).
In the case of “TTACTAGATTTATCATTAAACATACTATCATAATATGCAACGGAGTCACCTAGTGCAG”, the binding signal is reported as 6040 fluorescence intensity (a.u.).
For “AAATTGATTATAGATAATTTAGATATAGTAGGTAGCTATACGGAGTCACCTAGTGCAG”, the binding signal was 18800 fluorescence intensity (a.u.).
In the case of “AGTCAGATTGATTGTTGACTTGCCTGTAGCTGAACTCAGCCGGAGTCACCTAGTGCAG”, the binding signal is reported as 44200 fluorescence intensity (a.u.).
“ACTAATAACAAAACAAATTACAGATTTCGCCTATAAACTGCGGAGTCACCTAGTGCAG” was tested, and the binding signal was 5510 fluorescence intensity (a.u.).
With “TATATTCAATTATTGATTTGATGAAACTAAGTTAGTATCGCGGAGTCACCTAGTGCAG” the binding signal was 44800 fluorescence intensity (a.u.).
“GTGATTAGCCATTCCTCTTCTCATCTCTAGCCACTTCGCTCGGAGTCACCTAGTGCAG” was tested, and the binding signal was 15500 fluorescence intensity (a.u.).
With “ATTAATTAGGCTTAATAAATTCGTTTCGCAGTTTACAGGCCGGAGTCACCTAGTGCAG” the binding signal was 33000 fluorescence intensity (a.u.).
For “CGCTTTCCAATTACCACACTTTCTTTCTTCTCTGAATGTACGGAGTCACCTAGTGCAG”, the binding signal was 5850 fluorescence intensity (a.u.).
With “GATTCATTGACAAGTTAAGGGACCTCATATGAACTTATTCCGGAGTCACCTAGTGCAG” the binding signal was 4570 fluorescence intensity (a.u.).
In the case of “GTGATGATCAATTATGAACGAAACGAAGGGAGTAAAGCTTCGGAGTCACCTAGTGCAG”, the binding signal is reported as 16400 fluorescence intensity (a.u.).
In the case of “TTCTGGATTAATTGCGGAATTAGAGAGTTTGATCATAACCCGGAGTCACCTAGTGCAG”, the binding signal is reported as 20500 fluorescence intensity (a.u.).
In the case of “TAATTTTGACAGGATTTCTTATGTATTTACTAAATTTGGCCGGAGTCACCTAGTGCAG”, the binding signal is reported as 21400 fluorescence intensity (a.u.).
“TCTGATCGATGAGTATAAATTTATATACCTTGTTCGTTCGCGGAGTCACCTAGTGCAG” was tested, and the binding signal was 13400 fluorescence intensity (a.u.).
With “GGGAACTATCAATTAGACCATCTTTGCTTCAAGGTAATCTCGGAGTCACCTAGTGCAG” the binding signal was 14200 fluorescence intensity (a.u.).
“TACATATGTCTAGATTTATTAACATCTAAATGAATATAGGCGGAGTCACCTAGTGCAG” was tested, and the binding signal was 3340 fluorescence intensity (a.u.).
In the case of “TGTTGATGAGCTAAAGGTTGCAAATTGGAATGGTTTGGGGCGGAGTCACCTAGTGCAG”, the binding signal is reported as 9920 fluorescence intensity (a.u.).
“TTCCTAATTGCTCTGTTTTAGCTGCCACAGGGAATCAACTCGGAGTCACCTAGTGCAG” was tested, and the binding signal was 10900 fluorescence intensity (a.u.).
“TACATCACTAATCACGTTGCTTCGATGACACCTCCTTCTTCGGAGTCACCTAGTGCAG” was tested, and the binding signal was 7440 fluorescence intensity (a.u.).
For “TACAAACTATATACTAATTGGTTGTAACCTCTTTGAAGTACGGAGTCACCTAGTGCAG”, the binding signal was 28700 fluorescence intensity (a.u.).
For “ATTATTTCTGGATTAATTAATATCACTCCTGAAATGGTGGCGGAGTCACCTAGTGCAG”, the binding signal was 5820 fluorescence intensity (a.u.).
“GTTGACAACTTTCCAATTTGAAATCATTTACTATCCAAAACGGAGTCACCTAGTGCAG” was tested, and the binding signal was 4920 fluorescence intensity (a.u.).
“GAGTATTAAGAAAATTGATAGTTTTAGAAGCATATGACACCGGAGTCACCTAGTGCAG” was tested, and the binding signal was 3370 fluorescence intensity (a.u.).
For “TTAATTAACTTCATAATCTACAGTATATTGAATTAATCTACGGAGTCACCTAGTGCAG”, the binding signal was 9540 fluorescence intensity (a.u.).
In the case of “GTCAATTCTGTCAATCTATGACTTTATGAAATCGTGTTTACGGAGTCACCTAGTGCAG”, the binding signal is reported as 27100 fluorescence intensity (a.u.).
In the case of “ATAATGTCAAATTTCGTTCCATTGTGAAGAAATTTTGCCACGGAGTCACCTAGTGCAG”, the binding signal is reported as 3410 fluorescence intensity (a.u.).
In the case of “AGGTGACTGGCCATGGACTGGCCCATGACGTTCGTGCCGGCGGAGTCACCTAGTGCAG”, the binding signal is reported as 7080 fluorescence intensity (a.u.).
For “ACAAATTTGTAGCCCGCTGCTCTTCTCTCTCATCTTTTATCGGAGTCACCTAGTGCAG”, the binding signal was 4860 fluorescence intensity (a.u.).
With “ATAGAAACTTAATTAACATTGCATGGCGATGGTTTGACGACGGAGTCACCTAGTGCAG” the binding signal was 6800 fluorescence intensity (a.u.).
With “GTTGTGACAGAATCAAGAATTTAAACCATTTTCATTATTACGGAGTCACCTAGTGCAG” the binding signal was 4020 fluorescence intensity (a.u.).
“TATAATTAACCCCGCAAATATATATTCTCATGCACCAAGCCGGAGTCACCTAGTGCAG” was tested, and the binding signal was 9970 fluorescence intensity (a.u.).
For “AACCCAATAACGGTAACTGACAAAACGATGAAAACCAAACCGGAGTCACCTAGTGCAG”, the binding signal was 4460 fluorescence intensity (a.u.).
In the case of “ATAACTTAACAGAAATATTATAGGTTGATCAAATGGAATGCGGAGTCACCTAGTGCAG”, the binding signal is reported as 8320 fluorescence intensity (a.u.).
“AATTACATATATAATTTAAGGACTTACAAATATAATTTAGCGGAGTCACCTAGTGCAG” was tested, and the binding signal was 4280 fluorescence intensity (a.u.).
In the case of “GCCAGTGTCACCTAATTATCTGTCGTTTATTTTATATTGTCGGAGTCACCTAGTGCAG”, the binding signal is reported as 4500 fluorescence intensity (a.u.).
In the case of “GTATGATTATCTTTCTTCGAGTAATTAACACGAAACGATGCGGAGTCACCTAGTGCAG”, the binding signal is reported as 40700 fluorescence intensity (a.u.).
“ACGGTGACTGATTAGTCTCTTGTGCCCCTAAGGGCAGAGCCGGAGTCACCTAGTGCAG” was tested, and the binding signal was 29600 fluorescence intensity (a.u.).
“GTAGTAATTATTAAAATCTTTTGAGCAAGAGGGGTATACTCGGAGTCACCTAGTGCAG” was tested, and the binding signal was 16500 fluorescence intensity (a.u.).
“GCTCCGTTAATTTTCTCGGCAATTAAGCGAAAGCAATTGACGGAGTCACCTAGTGCAG” was tested, and the binding signal was 9360 fluorescence intensity (a.u.).
In the case of “GCCCAAACTAGTGATTATGTGGGCCTAAGAAAGAAAAGCCCGGAGTCACCTAGTGCAG”, the binding signal is reported as 3180 fluorescence intensity (a.u.).
For “ACTAATTTGGAGTATTAAGCATAGACTATTTATAAAACTACGGAGTCACCTAGTGCAG”, the binding signal was 7390 fluorescence intensity (a.u.).
With “GTACACACACTCGGTTAATTACCAGCAGCAGTTTACAGTCCGGAGTCACCTAGTGCAG” the binding signal was 3400 fluorescence intensity (a.u.).
“AGCTGAAATCAGATGGCAATTAATGTGGATATGATACTTGCGGAGTCACCTAGTGCAG” was tested, and the binding signal was 7310 fluorescence intensity (a.u.).
In the case of “CAGTTAATTTATACAAGCAAAACGAATTATATAGTTCATGCGGAGTCACCTAGTGCAG”, the binding signal is reported as 33100 fluorescence intensity (a.u.).
“TTTATAATTGCAATTAGTGTTTCAGGATGAGGGAAGTGCACGGAGTCACCTAGTGCAG” was tested, and the binding signal was 44600 fluorescence intensity (a.u.).
For “AGAGATGCTGATTGCTGAGCGGTACATATGGGCTGGCATTCGGAGTCACCTAGTGCAG”, the binding signal was 13700 fluorescence intensity (a.u.).
With “ATTGTTGGATTGGACAATTTATTAACAGTCTCTGTCCGAGCGGAGTCACCTAGTGCAG” the binding signal was 16600 fluorescence intensity (a.u.).
